Data on 68 molecules can be found in PubChem BioAssay AID434955 (Southern Research Specialized Biocontainment Screening …, 2010).

The other results are listed elsewhere or left out. Shown are side measurements of this screen, not its main read-out; they come without a call. The list favours compounds with an active or inconclusive main result.

The assay is described as follows: beta-lactam sensitization of Mtb H37Rv, H37Rv (AID 434955).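 Also: growth measured after seven days incubation then overnight dye step; 0% = bacteria only wells and 100% = bacteria with antibiotic.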 The conditions noted are these: M. tuberculosis H37Rv growth with meropenem, percent inhibition; measured here: primary screen without meropenem; at 25 µM.
A word on the inhibition: it is the change of the read-out against control, counted positive when it falls. For the molecule `CC(=O)c1ccccc1C(=O)N1CCCC(CCC(=O)N2CCN(c3ccccn3)CC2)C1` (stereo not drawn), the inhibition was -0.82%.

On to `Cn1cc(C(=O)N/N=C/C(Br)=C\c2ccccc2)ccc1=O`, for which the inhibition is -5.39%.

On to `O=C(Nc1ccccc1NC(=O)c1ccco1)c1ccco1`, for which the inhibition is -3.78%.

`COc1ccccc1N1CCN(C2CCCN(C(=O)c3oc(C)cc3C)C2)CC1` (stereo not drawn): the inhibition was -1.62%.

For `Cn1c(=O)[nH]c(=O)c2c1nc(Br)n2CCC(=O)c1ccccc1`, the inhibition came to 13.9%.

Turning to `Clc1ccc(-n2c(SC/C=C/c3ccccc3)nnc2-c2cccnc2)cc1`, the inhibition was determined as 19.2%.

`COC(=O)N1C(=O)[C@@](Cc2ccccc2)(c2ccccc2)N1C(=O)OC`: the inhibition was -8.02%.

Regarding `O=c1c2ccccc2nnn1CSc1nc2cc(Cl)ccc2c(=O)n1Cc1ccco1`, the inhibition was determined as 6.6%.

Consider `O=C(NCCOc1ccc(F)cc1)C1CCN(S(=O)(=O)c2ccccc2)CC1`, for which the inhibition was -1.57%.

On to `CC(=O)C1C(c2ccc3ncccc3c2)NC(=O)NC1(O)C(F)(F)F` (stereo not drawn), for which the inhibition is -7.01%.

Turning to `O=C(Nc1nc2cc3c(cc2s1)OCO3)C1CCCCC1`, the inhibition stood at 1.21%.

In the case of `C[C@@H](NC(=O)c1[nH]cnc1C(=O)Nc1cccc(Cl)c1)c1ccccc1`, the inhibition turned out to be 65.3%.

For the molecule `CCOC(=O)c1ccccc1OCc1cc(/C=N/n2cncn2)ccc1OC`, the inhibition stood at 6.17%.

In the case of `Cc1ccc(CN(C)C(=O)c2cc(COc3cccc(C(F)(F)F)c3)on2)o1`, the inhibition was found to be 19.7%.

With `CCS(=O)(=O)N1CCCC(c2nc(-c3cccc(OC)c3)no2)C1` (stereo not drawn), the inhibition worked out at 3.5%.

As to `COc1cc(NC(=O)c2cccs2)ccc1NC(=O)Cc1ccccc1`, the inhibition is -0.81%.

For the molecule `CSc1ccccc1NC(=O)CN(c1cccc(C)c1)S(C)(=O)=O`, the inhibition turned out to be 1.75%.

In the case of `O=C(CCN1C(=O)c2ccccc2C1=O)Nc1ccc(-c2cn3ccsc3n2)cc1`, the inhibition was -4.64%.

`Cn1c(SCC(=O)Nc2ccccc2F)nnc1-c1cccnc1`: the inhibition is 0.43%.

For the molecule `O=C(OCC(=O)N1CCc2ccccc21)c1ccc(Cl)nc1`, the inhibition is 27.3%.

On to `CC1(C)CC(=O)C(C=NCCCn2ccnc2)=C(O)C1`, for which the inhibition is -8.44%.

Take `C/C(=N\NC(=O)c1ccccc1)C1C2C=CC(C2)C1(C)C` (stereo not drawn): the inhibition came out at 3.15%.

As to `O=C(NCc1ccco1)c1cc(-c2cccs2)on1`, the inhibition was determined as 0.15%.

With `Cc1cccc(NC(=O)Cn2c(=O)oc3ccccc32)n1`, the inhibition is -11.5%.

As to `COc1ccc2c(c1)c(C(C)=O)c(C)n2-c1ccccc1`, the inhibition was -9.85%.

Take `CCC(C)NC(=O)C1CCN(S(=O)(=O)c2cccs2)CC1` (stereo not drawn): the inhibition was found to be 5.86%.

Take `COc1ccc(CN2CCC(n3nccc3NC(=O)c3cccc(F)c3)CC2)cc1O`: the inhibition amounted to 5.47%.

Consider `COc1ccc(OC)c(NC(=O)c2cccc(N3C(=O)C4C5CCC(C5)C4C3=O)c2)c1` (stereo not drawn), for which the inhibition stood at 18.1%.

Take `CC(C)(C)c1ccc(C(=O)NCc2nnc(SCC(=O)NCC3CCCO3)o2)cc1` (stereo not drawn): the inhibition was -3.17%.

For `CN(CC1CCCO1)S(=O)(=O)c1ccc(C(=O)Nc2nnc(-c3ccccc3)o2)cc1` (stereo not drawn), the inhibition was found to be 93.5%.

As for `CCC(CC)c1nnc(NC(=O)c2ccc(N3CCCCC3)c([N+](=O)[O-])c2)s1`, the inhibition was 41.8%.

With `CCN(CC)C(=O)c1ccc(NC(=O)c2cccc(S(=O)(=O)N3CCN(C)CC3)c2)cc1`, the inhibition came out at 1.34%.

Consider `c1ccc2c(c1)OCC(c1nn3c(Cn4nnc5ccccc54)nnc3s1)O2` (stereo not drawn), for which the inhibition was found to be 1.34%.

As for `Cc1c(C(=O)OC/C(O)=C(\C#N)c2nc3ccccc3[nH]2)oc2ccc(Br)cc12`, the inhibition amounted to 11.9%.

For the molecule `Cc1ccc(NC(NC(=O)c2ccccc2[N+](=O)[O-])C(Cl)(Cl)Cl)cc1` (stereo not drawn), the inhibition was -0.81%.

As for `CCOC(=O)N/C(N)=N/c1nc2ccccc2s1`, the inhibition is -3.05%.

As to `Cc1cccc(C)c1OCc1cc(C(=O)NC2CCC(O)CC2)no1` (stereo not drawn), the inhibition stood at 5.33%.

With `Cc1ccc(NC(=O)CSc2nc3c(c(=O)[nH]2)CCC3)cc1C`, the inhibition was determined as 3.75%.

On to `CC(C)(C)N1Cc2ccccc2C1=N`, for which the inhibition was 1.47%.

`O=C(/C=C/c1cccs1)Nc1ccc(N2CCOCC2)c(S(=O)(=O)Nc2cc(Cl)ccc2Cl)c1`: the inhibition was -6.56%.

As for `O=c1c(Cl)c(Nc2cccc(Cl)c2)cnn1-c1nc2ccccc2s1`, the inhibition is -3.66%.

`COc1ccc(CC(=O)OCC(=O)Nc2ncc(Cl)cc2Cl)cc1OC`: the inhibition came out at 3.51%.

Consider `COc1cc(C(=O)NNC(=O)c2cc(-c3ccccc3)n[nH]2)cc(OC)c1C`, for which the inhibition was 19.2%.

Turning to `Cc1ccc(F)cc1CNC(=O)C1CCC(=O)N(CCCN2CCCC2=O)C1` (stereo not drawn), the inhibition is -5.34%.

On to `COc1ccccc1CNC(=O)c1cc2c(C)nn(Cc3ccc(F)cc3)c2s1`, for which the inhibition is -1.67%.

`Cc1cccc2[nH]c(CN(C)C(=O)C3CCC(=O)N(CCc4ccccc4)C3)nc12` (stereo not drawn): the inhibition was -4.65%.

For the molecule `CCc1ccc(NC(=S)Nc2ccc3cn[nH]c3c2)cc1`, the inhibition was 32%.

As for `O=C(COc1ccccc1)N(Cc1cc2ccccc2[nH]c1=O)CC1CCCO1` (stereo not drawn), the inhibition is -7.55%.

On to `CCCc1cc(NC(=O)COC(=O)c2nccnc2N)n(-c2ccccc2)n1`, for which the inhibition was determined as 51.6%.

Regarding `Cc1ccc2nc(-c3ccc(NC(=O)c4ccco4)cc3)[nH]c2c1`, the inhibition came out at 2%.

On to `Cc1ccc(OC(=O)NC2CCS(=O)(=O)C2)cc1C` (stereo not drawn), for which the inhibition was 3.11%.

Regarding `O=C(CSc1nnc(CNC(=O)c2ccccc2)o1)NCCc1ccccc1`, the inhibition was found to be 9.21%.

With `CCOc1ccc(CN2CCC(n3nccc3NC(=O)c3ccccc3OC)CC2)cc1`, the inhibition is 0.48%.

For the molecule `O=C(COc1cccc2cccnc12)N/N=C/c1ccc(O)cc1`, the inhibition stood at 7.03%.

`Nc1c(C(=O)NC2CC2)c2nc3ccccc3nc2n1-c1ccc2c(c1)OCO2`: the inhibition came out at 7.17%.

Turning to `Cn1cc(Cl)cc(C(=O)Nc2ccccc2)c1=O`, the inhibition was -2.53%.

`CCOc1ccc(CCNC(=O)CSc2cc(=O)n(C)c3cc(Cl)ccc23)cc1OCC`: the inhibition stood at 10.6%.

For `O=S(=O)(c1ccc(Nc2ccc3c(c2)OCO3)nc1)N1CCOCC1`, the inhibition came to 5.42%.

Turning to `CCCN(CCC)C(=O)c1c(C)[nH]c(C(=O)OCC)c1C`, the inhibition is -5.74%.

In the case of `O=S(=O)(c1cccc(C(F)(F)F)c1)N1CCN(c2nnnn2-c2ccccc2)CC1`, the inhibition is 1.17%.

As for `O=C(Nc1ccc2c(c1)OCO2)C1(S(=O)(=O)c2ccc(Cl)cc2)CC1`, the inhibition was -3.81%.

For `O=C(N=C1SC2CS(=O)(=O)CC2N1CCc1ccccc1)C1CCCCC1` (stereo not drawn), the inhibition was -1.13%.

For the molecule `CC1CN(C(=S)NC(=O)c2cccc([N+](=O)[O-])c2)CC(C)O1` (stereo not drawn), the inhibition was 50.2%.

Consider `CC#CC[N+](C)(C)CCCCCCCCCCCC`, for which the inhibition was found to be 15.4%.

`CCN(CC)S(=O)(=O)c1ccc(N2CCOCC2)c(NC(=O)c2cc(C)cc(C)c2)c1`: the inhibition was determined as 7.72%.

Turning to `CCOC(=O)c1cnc(COc2ccc(OC)cc2)[nH]c1=O`, the inhibition is 50%.

With `Cc1ccc(C(=O)Nc2ccccc2C(=O)N2CCCC(C)C2)cc1` (stereo not drawn), the inhibition is -4.04%.

Take `CC(=O)N1CCN(c2cccc(C)c2C)CC1`: the inhibition is -6.33%.
